Out of some 310,000 compounds screened, about 14,000 (4.5%) showed an effect of 50% or more. The effect is printed as a negative number. This is one part of the list.
Molecular target: human ether-à-go-go-related gene (hERG) potassium channel (human, UniProt Q12809)
Test: primary screen, population patch clamp on CHO cells stably expressing hERG
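Further: peak tail current of the secondary pulse compared with the same well before compound.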

human ether-à-go-go-related gene (hERG) potassium channel, sequence (Q12809 whole entry, looked up): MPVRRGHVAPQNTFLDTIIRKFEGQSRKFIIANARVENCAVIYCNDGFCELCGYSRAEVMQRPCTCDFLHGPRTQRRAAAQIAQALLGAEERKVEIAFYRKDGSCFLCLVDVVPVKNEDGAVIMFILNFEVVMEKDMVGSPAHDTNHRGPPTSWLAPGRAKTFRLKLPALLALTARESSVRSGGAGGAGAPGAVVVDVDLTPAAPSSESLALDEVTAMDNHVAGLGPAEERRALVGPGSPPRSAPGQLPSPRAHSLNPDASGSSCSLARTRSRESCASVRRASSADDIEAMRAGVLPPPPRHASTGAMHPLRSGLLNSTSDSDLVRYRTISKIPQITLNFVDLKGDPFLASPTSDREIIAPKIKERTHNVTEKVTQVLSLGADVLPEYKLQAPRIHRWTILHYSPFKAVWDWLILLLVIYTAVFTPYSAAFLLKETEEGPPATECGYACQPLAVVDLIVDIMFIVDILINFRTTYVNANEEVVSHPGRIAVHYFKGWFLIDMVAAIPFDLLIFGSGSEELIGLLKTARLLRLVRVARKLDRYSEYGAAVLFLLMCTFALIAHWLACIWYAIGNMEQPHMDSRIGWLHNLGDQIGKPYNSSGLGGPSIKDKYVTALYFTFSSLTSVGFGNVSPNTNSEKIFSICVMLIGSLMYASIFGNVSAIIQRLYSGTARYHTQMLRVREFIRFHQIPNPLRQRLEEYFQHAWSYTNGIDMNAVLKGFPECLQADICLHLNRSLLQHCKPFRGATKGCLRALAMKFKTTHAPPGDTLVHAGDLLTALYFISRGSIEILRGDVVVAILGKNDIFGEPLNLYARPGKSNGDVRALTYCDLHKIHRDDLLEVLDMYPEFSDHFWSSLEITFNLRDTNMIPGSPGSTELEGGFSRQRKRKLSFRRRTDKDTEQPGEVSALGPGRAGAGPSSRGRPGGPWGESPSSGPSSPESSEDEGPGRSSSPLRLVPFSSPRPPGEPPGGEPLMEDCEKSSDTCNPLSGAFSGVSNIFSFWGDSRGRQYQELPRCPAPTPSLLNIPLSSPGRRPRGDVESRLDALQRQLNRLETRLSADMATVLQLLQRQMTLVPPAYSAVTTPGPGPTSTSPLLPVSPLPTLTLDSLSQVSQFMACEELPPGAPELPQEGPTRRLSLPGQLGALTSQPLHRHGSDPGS

Row | Compound | hERG current change (%, negative = inhibition) at 10uM [%]
1 | CN1C(=O)c2ccccc2C(C(=O)O)C1c1cccc([N+](=O)[O-])c1 (stereo not shown) | 24.4
2 | Cc1ccc(C)c(N2CCN(C(=O)c3ccc(N4CCCC4=O)cc3)CC2)c1 | -37.2
3 | COc1ccc(-c2coc3cc(OC)cc(O)c3c2=O)cc1 | 24.5
4 | CN1CCN(c2nc3ccccc3nc2C(C#N)S(=O)(=O)c2ccccc2)CC1 (stereo not shown) | -6.42
5 | Cc1cccc(OCC(=O)NCc2ccc(F)cc2)c1 | 2.54
6 | CCOP(=O)(OCC)C(C)(C)NC(=O)c1cc([N+](=O)[O-])cc([N+](=O)[O-])c1 | 7.07
7 | COc1ccc(OCc2nc3c4c(ncn3n2)-c2ccccc2CC42CCCC2)cc1 | 6.66
8 | O=C(O)[C@H](CO)Nc1ncnc2sc3c(c12)CCC3 | -0.873
9 | CCOc1ccc(NC(=O)c2ccc(Cl)c(NC(=O)c3ccco3)c2)cc1 | 2.06
10 | O=C(Cc1coc2ccc3ccccc3c12)N1CCN(c2ncccn2)CC1 | 5.86
11 | CCN(CC)C(=O)Oc1ccc(OC(=O)N(CC)CC)cc1 | 14.6
12 | CCCc1cc(-c2n[nH]c(C(=O)OCC)c2-c2cscn2)c(O)cc1O | 0.233
13 | COc1ccc(Cc2n[nH]c(=S)o2)cc1 | 21.1
14 | CCCCOc1cccc(C2(C(=O)O)CCCC2)c1 | -35.4
15 | C=CCSc1nnc(C)c(/C=C/Nc2ccc(Cl)cc2)n1 | -9.44
16 | CCOC(=O)C1(Cc2ccccc2C)CCCN(C(=O)c2sccc2C)C1 (stereo not shown) | -5.43
17 | NS(=O)(=O)c1cccc(NC(=O)COC(=O)Cn2cc(C(F)(F)F)ccc2=O)c1 | 28
18 | CCCCOP(=O)(OCCCC)/C(C#N)=C(/C)O | 13.1
19 | CC1CCC2(CC1)NC(=O)N(Cc1cccc(C(F)(F)F)c1)C2=O (stereo not shown) | 12.9
20 | CC(C)c1ccc(C2NC(=O)CCC2[N+](=O)[O-])cc1 (stereo not shown) | -4.22
21 | Cc1ccc(N=Nc2c(C)[nH]n(-c3ccccc3)c2=O)cc1Br | 15.7
22 | COC(=O)CCCn1nc(NC(=O)c2ccco2)cc1C | 8.94
23 | COc1ccc(S(=O)(=O)NCc2ccco2)cc1NC(=O)c1ccccc1 | -5.92
24 | Cn1cc(Br)c(C(=O)Nc2ccc3c(C(F)(F)F)cc(=O)oc3c2)n1 | 8.85
25 | CCCN(CC(=O)Nc1ccccc1C)C(=O)Cc1n[nH]c(=O)c2ccccc12 | -10.2
